# Results from PubChem BioAssay AID1460 (National Center for Advancing Translational Sciences (NCATS), 2008).
# “And” between values parts separate entries of the source, which are not always exact repeats. Equal entries are not always repeated. About 5,800 (2.1%) of roughly 270,000 compounds were called active. Inconclusive results, whose numbers are uncertain, are shown with a selection of clear calls. The call rests on the fitted dose curve; in most records, active means well fitted inhibition curve with a large enough effect; inconclusive means small, poorly fitted or top-dose-only effect; inactive means flat fitted curve, though single readings scatter. Potencies beside an inconclusive call are fits to weak or partial responses and may not hold up.
# Biological target: Microtubule-associated protein tau (Homo sapiens) (UniProt P10636)
# Experiment: qHTS for Inhibitors of Tau Fibril Formation, Thioflavin T Binding; further: nearly all actives have a fitted effect of over 55% in size
# Settings: recombinant tau K18 P301L (four-repeat tau fragment), heparin-induced fibrillization, ThT fluorescence; series mostly up to 57.4 µM
# How it was run: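 K18 P301L tau (15 uM + 0.24 uM Alexa 594-tagged), heparin 20 uM, NaOAc pH 7, 6 h 37 C; ThT 30 uM, 1 h RT, ex 450/em 510 nm.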
# Potency means the concentration at half of the fitted maximal effect; tags describe the fitted curve by direction and shape.
# Sequence of UniProt P10636 (P10636 whole entry, looked up): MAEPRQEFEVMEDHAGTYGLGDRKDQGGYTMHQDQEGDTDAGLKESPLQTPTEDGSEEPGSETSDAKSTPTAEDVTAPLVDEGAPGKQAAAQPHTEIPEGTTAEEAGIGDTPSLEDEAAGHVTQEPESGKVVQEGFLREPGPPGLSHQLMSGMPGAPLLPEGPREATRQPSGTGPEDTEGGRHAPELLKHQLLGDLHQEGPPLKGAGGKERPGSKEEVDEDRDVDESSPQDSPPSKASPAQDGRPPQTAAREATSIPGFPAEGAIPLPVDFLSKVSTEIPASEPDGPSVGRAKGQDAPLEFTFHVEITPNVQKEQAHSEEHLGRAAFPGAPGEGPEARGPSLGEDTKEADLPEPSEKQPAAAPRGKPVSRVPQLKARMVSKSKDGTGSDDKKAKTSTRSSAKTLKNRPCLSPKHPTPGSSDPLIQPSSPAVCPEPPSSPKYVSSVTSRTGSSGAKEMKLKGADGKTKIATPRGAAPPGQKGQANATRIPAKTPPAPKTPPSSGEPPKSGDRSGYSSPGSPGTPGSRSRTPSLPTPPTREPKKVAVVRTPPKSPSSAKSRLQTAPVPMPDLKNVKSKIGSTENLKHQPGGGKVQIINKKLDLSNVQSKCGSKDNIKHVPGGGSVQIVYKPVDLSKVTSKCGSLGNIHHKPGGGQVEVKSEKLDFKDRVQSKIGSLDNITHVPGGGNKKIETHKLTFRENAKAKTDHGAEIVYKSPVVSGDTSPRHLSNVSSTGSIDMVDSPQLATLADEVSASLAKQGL
row,SMILES,Potency
1,S=c1[nH]nc(COc2ccccc2)n1/N=C/C(Cl)=C/c1ccccc1,"inconclusive: 4.47 µM [inhibitor, partial curve]"
2,COC(=O)C1=C(C)NC(=O)/C1=C\c1cc(C)n(-c2ccccc2)c1C,active: 12.6 µM
3,Nc1ccc(C(=O)OCC(=O)Nc2cc([N+](=O)[O-])ccc2F)cc1,"inconclusive: 31.6 µM [inhibitor, partial curve]"
4,O=C(O)C12C[C@H]3C[C@@H](C1)CC(n1ncc(N4CCN(c5ccccc5)CC4)c(Cl)c1=O)(C3)C2,inactive
5,O=C(NC1CCCC1)c1ccc2c(c1)N(Cc1c(F)cccc1Cl)C(=O)c1ccccc1S2,inactive
6,N#C/C(=C\c1ccc(N2CCCC2)c([N+](=O)[O-])c1)c1nc2ccccc2[nH]1,active: 2 µM
7,COc1cc(C(=O)N(CCCN(C)C)c2nc3c(OC)cccc3s2)cc(OC)c1OC,inactive
8,CCN1C(=O)/C(=C/c2ccc(N3CCCC3)cc2)NC1=S,active: 11.2 µM
9,CCOc1ccc(N(CC)S(=O)(=O)N2CCCC(C(=O)NCc3ccccc3OCC)C2)cc1 (centres undefined),inactive
10,COc1cc(-c2cc3n(C)c(C)c(CCC(=O)NC4CCC(C)CC4)c(=O)n3n2)cc(OC)c1OC (centres undefined),inactive
11,CCC(=O)Nc1sc(C(=O)OC)c(C)c1C(=O)OC,inactive
12,Brc1cccc(-c2nnc(SCc3nc4ccccc4[nH]3)o2)c1,"inconclusive: 15.8 µM [inhibitor, partial curve]"
13,O=C(Nc1nnc(-c2ccc3c(c2)CCCC3)o1)C1COc2ccccc2O1 (centres undefined),"inconclusive: 25.1 µM [inhibitor, partial curve]"
14,CCOC(=O)N1CCN(C(=O)c2ccc(N3C(=O)CCC3=O)cc2)CC1,inactive
15,Cc1ccc(/C(O)=C2/C(=O)C(=O)N(CCN3CCOCC3)C2c2ccccn2)cc1 (centres undefined),"inconclusive: 28.2 µM [inhibitor, partial curve]"
16,COc1ccccc1CNc1ccc(N2CCCCC2)cc1,active: 22.4 µM
17,C[C@H](N)CCP(=O)(O)O,inactive
18,COc1cc2c(cc1OC)C(c1ccc(-c3ccc(Cl)c(Cl)c3)o1)=NCC2,active: 11.2 µM
19,Cc1ccc(S(=O)(=O)n2cnc3cc([N+](=O)[O-])ccc32)cc1C,inactive
20,CCc1ccc(-c2nc(CN3CCCC(C(=O)NCc4ccccc4Cl)C3)c(C)o2)cc1 (centres undefined),"inconclusive: 17.8 µM [inhibitor, partial curve]"
21,CC1C2=C(CC(C)(C)CC2=O)NC2=C1C(=O)CC(C)(C)C2,inactive
22,COc1ccc(OC)c(Nc2nc(-c3sc(NC(=O)C(C)(C)C)nc3C)cs2)c1,"inconclusive: 14.1 µM [inhibitor, partial curve]"
23,CCOC(=O)Nc1nc(-c2ccc(F)cc2F)cs1,"inconclusive: 17.8 µM [inhibitor, single point]"
24,O=C(Nc1ccc(N2CCOCC2)c(Cl)c1)c1ccc([N+](=O)[O-])o1,"inconclusive: 12.6 µM [inhibitor, partial curve]"
25,NC(=O)C1CCN(C(=O)CN2CCCc3ccccc32)CC1,"inconclusive: 39.8 µM [inhibitor, single point]"

row,SMILES,Potency
1,COc1cc2c(cc1OC)CN(S(=O)(=O)c1cccs1)CC2,inactive
2,O=C(O)c1ccc(-n2c(=O)c3ccccc3c3ccccc3c2=O)cc1,inactive
3,O=C(Nc1ccccc1Cl)c1cccc(COc2cc(Cl)ccc2Cl)c1,"inconclusive: 7.08 µM [inhibitor, partial curve]"
4,CCC(c1nnc(SCc2nc3ccccc3s2)n1Cc1ccccc1)N(C)C (centres undefined),"inconclusive: 14.1 µM [inhibitor, partial curve]"
5,Cn1c(=O)n(C)c2cc(NS(=O)(=O)c3ccc(Cl)cc3)c(NCc3ccccc3)cc21,"inconclusive: 10 µM [inhibitor, partial curve]"
6,COc1cccc(C(=O)NCC(c2ccc3c(c2)OCO3)N2CCN(C)CC2)c1 (centres undefined),inactive
7,Nc1scc2c(C(=O)N/N=C/c3ccc(Cl)cc3)nn(-c3ccccc3)c(=O)c12,active: 11.2 µM
8,CSC(=NC#N)N1CCN(c2ccccn2)CC1,"inconclusive: 11.2 µM [inhibitor, partial curve]"
9,O=C(CSC1CC(=O)N(c2ccc(C(=O)O)cc2)C1=O)Nc1ccc(Cl)cc1 (centres undefined),"inconclusive: 25.1 µM [inhibitor, single point]"
10,CN1C(=O)C(c2nnc(Nc3cccc4ccccc34)s2)C2CC1(C)Oc1ccccc12 (centres undefined),inactive
11,COc1cc(OC)c(NC(C)C(=O)NCc2ccccc2)cc1Cl (centres undefined),"inconclusive: 14.1 µM [inhibitor, partial curve]"
12,NC(=O)COc1ccc(-c2noc(COc3ccc(Cl)cc3)n2)cc1,"inconclusive: 0.708 µM [inhibitor, full curve]"
13,COC(=O)c1c(-c2cccc(OC)c2)csc1N,"inconclusive: 14.1 µM [inhibitor, partial curve, poor fit]"
14,CCOc1cc(C(=O)Nc2cccc3ncccc23)cc(OCC)c1OCC,inactive
15,COCc1cc(C)nc2sc(C(=O)Nc3nccs3)c(N)c12,"inconclusive: 17.8 µM [inhibitor, partial curve]"
16,COc1cc(NC(=O)c2csc(N)n2)cc(C(=O)Nc2cccc(C(F)(F)F)c2)c1,"inconclusive: 25.1 µM [inhibitor, single point]"
17,COc1ccc2nc(NC(C)=O)sc2c1,inactive
18,O=C(CCCn1c(=O)c2cccn2c2ccccc21)NCCc1ccc(Cl)cc1,"inconclusive: 1.58 µM [inhibitor, full curve, poor fit]"
19,CCCCNC(=O)c1cc2c(-c3ccc(Cl)cc3)nn(C)c2s1,inactive
20,COCCNC(=O)Nc1ccc2nc(-c3ccco3)c(-c3ccco3)nc2c1,active: 3.98 µM
21,COc1ccc(CC(=O)Nc2ccc(-c3nc4ccccc4s3)c(C)c2)cc1OC,"inconclusive: 3.55 µM [inhibitor, full curve, poor fit]"
22,CCOc1ccc2[nH]cc(S(=O)(=O)c3ccc(Cl)cc3)c(=O)c2c1,inactive
23,Oc1cc(Br)ccc1C=Nc1ccc(N2CCCCC2)cc1,active: 14.1 µM
24,COc1ccccc1C(=O)Oc1ccc(C(c2c(C)[nH][nH]c2=O)c2c(C)[nH][nH]c2=O)cc1,"inconclusive: 31.6 µM [inhibitor, single point]"
25,CCc1ccc(-c2cc(C(=O)N/N=C/c3ccco3)[nH]n2)cc1,"inconclusive: 0.316 µM [inhibitor, full curve, poor fit]"

row,SMILES,Potency
1,Cc1nc(NC(=O)c2ccccc2)sc1-c1csc(NCCc2ccccc2)n1,active: 15.8 µM
2,Cc1nc(-c2ccc(F)cc2)sc1CCNC(=O)C(=O)Nc1ccc2c(c1)OCCO2,"inconclusive: 0.501 µM [inhibitor, full curve]"
3,O=C(Nc1ccc([N+](=O)[O-])cc1)Nc1ccc(OC(F)F)c(Cl)c1,"inconclusive: 12.6 µM [inhibitor, partial curve, poor fit]"
4,COc1ccccc1N1CCN(C(=O)c2ccc(S(=O)(=O)N3CCCCCC3)cc2)CC1,"inconclusive: 14.1 µM [inhibitor, partial curve]"
5,Cc1cccc(NC(=O)CS(=O)(=O)Cc2ccccc2)n1,inactive
6,CC(C)(C)OC(=O)N1CCC[C@H]1c1nnc(SCc2ccc(Cl)cc2Cl)o1,"inconclusive: 17.8 µM [inhibitor, single point]"
7,OC[C@H]1O[C@@H](n2cnc3c(Nc4ccccc4)ncnc32)[C@H](O)[C@H]1O,inactive
8,O=C(Cc1ccc(-n2cccc2)cc1)N1CCc2ccccc21,"inconclusive: 10 µM [inhibitor, partial curve]"
9,CCOC(=O)c1sc(NC(=O)c2cc(-c3ccccc3C)nc3ccccc23)c(C#N)c1C,"inconclusive: 28.2 µM [inhibitor, partial curve]"
10,C=CCc1cccc(/C=N/NC(=O)CNc2cccc3ccccc23)c1O,inactive
11,O=C(Nc1ccccc1)C1=C(c2ccccc2)S(=O)(=O)CCS1(=O)=O,active: 28.2 µM
12,O=c1c(O)cccc2cc(O)c(O)c(O)c12,active: 2.82 µM and active: 3.16 µM
13,Clc1ccccc1Cn1c(/C=C/c2ccco2)nc2ccccc21,"inconclusive: 20 µM [inhibitor, single point]"
14,Cc1cccc(-n2nc(C)c(C(=O)Nc3cc(C)ccc3C)c2-n2cccc2)c1,inactive
15,C/C(CC(=O)Nc1cc(C)ccn1)=N\NC(=O)C(=O)Nc1cccc(C)c1,"inconclusive: 10 µM [inhibitor, partial curve]"
16,CCOn1c(=O)c(-c2cccs2)[n+]([O-])c2ccccc21,inactive
17,COc1cc(/C=N/N2CCOCC2)ccc1OCc1ccc(Cl)cc1,"inconclusive: 3.98 µM [inhibitor, partial curve]"
18,CCCOc1cccc(C(=O)Nc2cc(NC(=O)c3ccco3)ccc2OC)c1,"inconclusive: 28.2 µM [inhibitor, single point]"
19,Cc1c(CC(=O)NCc2ccc(F)cc2)c(=O)oc2cc(O)c(Cl)cc12,"inconclusive: 39.8 µM [inhibitor, single point]"
20,COc1ccc(NC(=O)CC2NCCNC2=O)c(OC)c1 (centres undefined),inactive
21,COc1cc(NC(C)=O)c2ncccc2c1NC(C)=O,inactive
22,O=[N+]([O-])c1ccc(-c2cn3c(n2)CCC3)cc1,"inconclusive: 28.2 µM [inhibitor, partial curve]"
23,COc1ccc(-c2cc(=O)c3c(O)cc(O)cc3o2)cc1,"inconclusive: 3.55 µM [inhibitor, full curve]"
24,COc1ccc(Nc2sc(C(=O)c3ccc(Cl)cc3)c(N)c2C(=O)Nc2ccccc2OC)cc1,active: 22.4 µM
